{"source": "PubChem BioAssay AID485294", "about": "(National Center for Advancing Translational Sciences (NCATS), 2010)", "note": "In all, about 370,000 compounds went through this assay and about 150 (0.041%) were called active. The inconclusive results got no clear call from the source; some entries with a clear call stand among them for comparison. Calls come from the whole dose curve; as a rule, active = well fitted inhibition curve with a large enough effect; inconclusive = small, poorly fitted or top-dose-only effect; inactive = flat fitted curve, though single readings scatter. No potency is given beside an inconclusive call; the fits are too rough. Potency is the fitted concentration of half-maximal effect; tags give direction and shape of the fitted curve.", "data": [{"biological_target": "Beta-lactamase (Escherichia coli (strain K12)) (UniProt P00811)", "sequence (P00811 whole entry, looked up)": "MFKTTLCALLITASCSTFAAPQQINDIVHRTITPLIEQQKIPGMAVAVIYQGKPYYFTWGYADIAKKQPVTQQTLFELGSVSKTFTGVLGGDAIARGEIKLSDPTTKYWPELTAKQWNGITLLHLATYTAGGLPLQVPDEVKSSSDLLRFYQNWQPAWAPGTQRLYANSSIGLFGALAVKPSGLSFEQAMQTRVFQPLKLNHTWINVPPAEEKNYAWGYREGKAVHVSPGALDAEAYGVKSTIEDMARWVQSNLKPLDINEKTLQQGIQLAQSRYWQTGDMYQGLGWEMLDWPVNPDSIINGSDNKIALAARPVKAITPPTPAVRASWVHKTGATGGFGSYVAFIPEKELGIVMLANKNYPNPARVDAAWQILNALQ", "experiment": "qHTS Inhibitors of AmpC Beta-Lactamase (assay with detergent); note: nearly all actives have a fitted effect of over 25% in size", "details": "AmpC hydrolysis of nitrocefin, absorbance 480 nm, 0.01% Triton; series mostly up to 114 µM", "method_in_brief": "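20 mM phosphate pH 7.0 + 0.01% (detergent screen) or 0.0001% Triton X-100; 5.3 nM AmpC reagent; cpd preinc 15 min RT; nitrocefin (800 uM stock) to start; A480 q20 s × 4 min; Activity was normalised to no-enzyme and no-compound control wells.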", "values": [{"smiles": "O=C(Cn1cc(S(=O)(=O)N2CCCC2)c(S(=O)(=O)N2CCCC2)c1)Nc1cccc(F)c1", "Potency": "inactive"}, {"smiles": "CC1C/C(=C/c2ccco2)C(=O)/C(=C/c2ccco2)C1", "note": "(stereo unspecified)", "Potency": "inactive"}, {"smiles": "O=[N+]([O-])c1cc(Cl)cc2c1nc(NCCO)c1ccccc12", "Potency": "inconclusive [inhibitor, full curve, poor fit]"}, {"smiles": "CCOP(=O)(OCC)C(NC(=O)/C=C/c1ccc(OC)cc1)c1ccccc1", "note": "(stereo unspecified)", "Potency": "inconclusive [inhibitor, full curve, poor fit]"}, {"smiles": "CC(=O)N1N=C(c2ccncc2)CC1c1ccccc1O", "note": "(stereo unspecified)", "Potency": "inactive"}, {"smiles": "O=C(COC(=O)c1cccs1)Nc1nc(-c2ccccc2)cs1", "Potency": "inactive"}, {"smiles": "O=C(O)COCc1nc2ccccc2s1", "Potency": "inactive"}, {"smiles": "CCOC(=O)c1c(-c2ccccc2)csc1NC(=O)c1cc(-c2ccc(Br)cc2)on1", "Potency": "inactive"}, {"smiles": "CCOc1ccc(OCCC(=O)OCC(=O)Nc2cc(C)nn2-c2ccccc2)cc1", "Potency": "inconclusive [inhibitor, full curve, poor fit]"}, {"smiles": "Cc1c(CNCCC2=CCCCC2)c(C(=O)O)c(C)n1Cc1ccccc1", "Potency": "inconclusive [inhibitor, full curve, poor fit]"}, {"smiles": "CCOC(=O)C1C(=O)CC(O)(c2ccccc2)CC1c1ccccc1", "note": "(stereo unspecified)", "Potency": "inconclusive [inhibitor, full curve, poor fit]"}, {"smiles": "CCOc1cc(/C=C2\\COc3ccccc3C2=O)cc(Br)c1OCC(=O)N(C)C", "Potency": "inactive"}, {"smiles": "COc1ccc(CCN2Cc3c(N)cccc3C2=O)cc1OC", "Potency": "inactive"}, {"smiles": "Nc1nc2sc3c(c2c(=O)s1)CCCC3", "Potency": "inconclusive [inhibitor, full curve]"}, {"smiles": "O=c1c2cn[nH]c2nc(SCc2cccc(Br)c2)n1-c1ccc(Cl)cc1", "Potency": "inactive"}, {"smiles": "CN(C)c1ccc(C(CNS(=O)(=O)c2ccc([N+](=O)[O-])cc2)N2CCOCC2)cc1", "note": "(stereo unspecified)", "Potency": "inconclusive [inhibitor, partial curve, poor fit]"}, {"smiles": "Cc1c(C(=O)N2CCCC2)oc2ccc(Br)cc12", "Potency": "inconclusive [inhibitor, single point]"}, {"smiles": "O=C(CCNC(=O)C1CCN(S(=O)(=O)c2ccccc2)CC1)NCc1cccc(Cl)c1", "Potency": "inconclusive [inhibitor, full curve, poor fit]"}, {"smiles": "COc1ccc(-c2[nH]c(-c3ccccc3)nc2SCC(=O)NCc2ccco2)cc1OC", "Potency": "inactive"}, {"smiles": "O=C(c1ccc2c(=O)n(-c3ccccc3)c(=O)[nH]c2c1)N1CCCCC1", "Potency": "inconclusive [inhibitor, single point]"}, {"smiles": "CC(=O)Nc1ccc(S(=O)(=O)NCCC(=O)OCC(=O)NNC(=O)c2ccccc2)cc1", "Potency": "inconclusive [inhibitor, full curve, poor fit]"}, {"smiles": "CC1=C(C(=O)Nc2cccnc2)C(c2cccc(F)c2)n2nc(SCc3ccccc3)nc2N1", "note": "(stereo unspecified)", "Potency": "inconclusive [inhibitor, partial curve, poor fit]"}, {"smiles": "Fc1ccc(C2c3cccn3CCN2C(=S)Nc2cccc(Br)c2)cc1", "note": "(stereo unspecified)", "Potency": "inactive"}, {"smiles": "CCOC(=O)Cn1c(=O)oc2cc(S(=O)(=O)NC3CCCc4ccccc43)ccc21", "note": "(stereo unspecified)", "Potency": "inconclusive [inhibitor, partial curve, poor fit]"}, {"smiles": "N/C(=N\\OS(=O)(=O)c1ccccc1)c1cccnc1", "Potency": "inactive"}, {"smiles": "COc1ccc2c3n(nc2c1)CCN=C3c1ccc(C)cc1", "Potency": "inconclusive [inhibitor, partial curve]"}, {"smiles": "CCN(CC)CCCNC(=O)c1oc2ccc3c(c2c1C)C(O)CC(C)(C)O3", "note": "(stereo unspecified)", "Potency": "inconclusive [inhibitor, full curve, poor fit]"}, {"smiles": "O=C(NC1CCCCC1)C(c1ccccn1)N(C(=O)c1csnn1)C1CC1", "note": "(stereo unspecified)", "Potency": "inconclusive [inhibitor, full curve, poor fit]"}, {"smiles": "CCC(=O)Nc1sc2c(c1C#N)CC(C)(CC)OC2", "note": "(stereo unspecified)", "Potency": "inconclusive [inhibitor, full curve, poor fit]"}, {"smiles": "COc1ccccc1/C=C1\\SC(=S)N(CCC(=O)NCCCN2CCOCC2)C1=O", "Potency": "inconclusive [inhibitor, single point]"}, {"smiles": "Cc1cc(C(=O)NCc2ccccc2Br)no1", "Potency": "inconclusive [inhibitor, full curve, poor fit]"}, {"smiles": "CC(C)Cn1c(=O)c2ccccc2n2c(CCC(=O)NCC3CCCO3)nnc12", "note": "(stereo unspecified)", "Potency": "inconclusive [inhibitor, full curve, poor fit]"}, {"smiles": "Cc1cc(C)n2nc(C(=O)OCC(=O)c3cc(C)n(C)c3C)nc2n1", "Potency": "inconclusive [inhibitor, single point]"}, {"smiles": "CCCNC(=O)C(=O)N/N=C/c1cccs1", "Potency": "inconclusive [inhibitor, full curve, poor fit]"}, {"smiles": "COc1cccc2sc(N(Cc3cccnc3)C(=O)Cc3ccccc3)nc12", "Potency": "inactive"}, {"smiles": "O=Cc1cn(CC(=O)N2CCCc3ccccc32)c2ccccc12", "Potency": "inconclusive [inhibitor, partial curve, poor fit]"}, {"smiles": "COc1ccccc1CC1(C)NC(=O)N(CC(=O)Nc2cc(C)on2)C1=O", "note": "(stereo unspecified)", "Potency": "inconclusive [inhibitor, full curve]"}, {"smiles": "COc1ccc(C2CC(c3ccc([N+](=O)[O-])cc3)=NN2C(C)=O)cc1", "note": "(stereo unspecified)", "Potency": "inconclusive [inhibitor, full curve]"}, {"smiles": "COc1ccc(CCNC2CCCCC2)cc1", "Potency": "inconclusive [inhibitor, partial curve, poor fit]"}, {"smiles": "COc1ccccc1C1=NCc2nnc(C)n2-c2ccc(Cl)cc21", "Potency": "inconclusive [inhibitor, full curve, poor fit]"}, {"smiles": "CN1C(=O)N(CC(=O)N2CCN(S(=O)(=O)Cc3ccccc3)CC2)C(=O)C12CCCCC2", "Potency": "inactive"}, {"smiles": "CCCCNC(=O)N1CCc2ccccc2C1", "Potency": "inconclusive [inhibitor, partial curve]"}, {"smiles": "COc1ccccc1-n1c(CNC(=O)c2ccco2)nnc1SCC(=O)Nc1nccs1", "Potency": "inconclusive [inhibitor, full curve]"}, {"smiles": "COc1cc2nc(/C=C/c3cc(OC)c(OC)c(OC)c3)sc2cc1SC", "Potency": "inactive"}, {"smiles": "CSCC[C@H](N)C(=O)NCC1CCC(C(=O)Nc2ccc3c(c2)OCO3)CC1", "note": "(stereo partly specified)", "Potency": "inconclusive [inhibitor, single point]"}, {"smiles": "Cc1nc2ccccc2c(=O)n1-c1ccc(F)c(NS(=O)(=O)c2ccccc2F)c1", "Potency": "inconclusive [inhibitor, partial curve, poor fit]"}, {"smiles": "COc1ccc(C(=O)N=c2nc3ccccn3s2)cc1", "Potency": "inconclusive [inhibitor, full curve]"}, {"smiles": "CSc1nc(SCC(N)=O)c2c3c(sc2n1)CN(C)CC3", "Potency": "inconclusive [inhibitor, full curve, poor fit]"}, {"smiles": "Cc1ccc(C)c(N2CCN(S(=O)(=O)c3ccc4[nH]c(=O)ccc4c3)CC2)c1", "Potency": "inconclusive [inhibitor, full curve, poor fit]"}, {"smiles": "O=C1CC(NS(=O)(=O)c2cccs2)CN1c1ccc(Cl)cc1", "note": "(stereo unspecified)", "Potency": "inconclusive [inhibitor, single point]"}, {"smiles": "CCCN(CCC)S(=O)(=O)c1ccc(NC(=O)Cc2cccs2)cc1", "Potency": "inconclusive [inhibitor, single point]"}, {"smiles": "COc1cccc(C2CC(c3c(Cl)cccc3Cl)n3nc(N)nc3N2)c1", "note": "(stereo unspecified)", "Potency": "inconclusive [inhibitor, full curve, poor fit]"}, {"smiles": "COc1cccc(CC(=O)N2CCN(Cc3cccc(Cl)c3)CC2)c1", "Potency": "inconclusive [inhibitor, full curve, poor fit]"}, {"smiles": "CCOC(=O)CCc1c(C)nc2cc(C3CCCN(C(=O)OC(C)(C)C)C3)[nH]n2c1=O", "note": "(stereo unspecified)", "Potency": "inconclusive [inhibitor, full curve, poor fit]"}, {"smiles": "Cc1cc(Br)ccc1SCC(=O)OC/C(O)=C(\\C#N)c1nc2ccccc2[nH]1", "Potency": "inconclusive [inhibitor, partial curve]"}, {"smiles": "CC1=C(C(=O)Nc2ccc(C)cc2C)C(C(C)C)n2nc(SCc3ccccc3Cl)nc2N1", "note": "(stereo unspecified)", "Potency": "inactive"}, {"smiles": "COc1cccc(CNC(=O)CCc2nnc(C3CCCCC3)o2)c1", "Potency": "inactive"}, {"smiles": "COc1ccc(-c2noc(N3CCC(C(=O)Nc4cc(OC)c(OC)c(OC)c4)CC3)n2)cc1", "Potency": "inconclusive [inhibitor, full curve]"}, {"smiles": "COC(=O)C1(C)NC(c2cccc(C)c2)C2C(=O)N(c3ccc(F)cc3)C(=O)C21", "note": "(stereo unspecified)", "Potency": "inactive"}, {"smiles": "C=CCn1c(SCC(=O)Nc2ncc(Cc3ccc(C)c(Cl)c3)s2)nnc1-c1ccncc1", "Potency": "inconclusive [inhibitor, full curve, poor fit]"}, {"smiles": "O=C(/C(=N\\Nc1ccc([N+](=O)[O-])cc1)Sc1nnnn1-c1ccccc1)c1ccccc1", "Potency": "inconclusive [inhibitor, partial curve, poor fit]"}, {"smiles": "CC(C)OC(=O)c1ccc(COc2ccc3ccc(=O)oc3c2)o1", "Potency": "inconclusive [inhibitor, partial curve, poor fit]"}, {"smiles": "c1ccc(C[C@H]2CNCCN2CCc2cccc3ccccc23)cc1", "Potency": "inconclusive [inhibitor, full curve]"}, {"smiles": "CCc1ccc(NC(=O)CCCc2nnc3n(C(C)CC)c(=O)c4sccc4n23)cc1", "note": "(stereo unspecified)", "Potency": "inactive"}, {"smiles": "COc1ccc(OC)c(C2c3c(oc4ccccc4c3=O)C(=O)N2CCCN(C)C)c1", "note": "(stereo unspecified)", "Potency": "inconclusive [inhibitor, partial curve]"}, {"smiles": "CC(C)NC(=O)c1ccccc1NC(=O)c1ccccc1N(C)S(C)(=O)=O", "Potency": "inconclusive [inhibitor, full curve]"}]}]}
